Measured values published in the supplement of paper PMC8728848.
The list shows a part of the results.

Tests used:
Assay in all cases: glycan array binding signal (z-score within array); higher = stronger binding
Conditions in all cases: glycan notation: IUPAC condensed, linker removed; mutation: F63H
Fuc(a1-2)Gal = biological target: Fuc(a1-2)Gal
Summary of the method: (§1)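 Glycan array data came from 3228 arrays in the Consortium for Functional Glycomics database, and only arrays with an available protein sequence were kept. Glycan names were put into IUPAC-condensed notation, and columns mapping to the same glycan were averaged. The binding signal is a within-array Z-score, averaged across arrays of one protein sequence run at different concentrations or buffers and across linkers. A negative Z-score can be read as non-binding.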

Fuc(a1-2)Gal(b1-3)GalNAc = biological target: Fuc(a1-2)Gal(b1-3)GalNAc
Summary of the method: as §1

[1] = biological target: Fuc(a1-2)Gal(b1-3)GalNAc(a1-3)[Fuc(a1-2)]Gal(b1-4)Glc
Summary of the method: as §1

[2] = biological target: Fuc(a1-2)Gal(b1-3)GalNAc(a1-3)[Fuc(a1-2)]Gal(b1-4)GlcNAc
Summary of the method: as §1

[3] = biological target: Fuc(a1-2)Gal(b1-3)GalNAc(b1-3)Gal
Summary of the method: as §1

[4] = biological target: Fuc(a1-2)Gal(b1-3)GalNAc(b1-3)Gal(a1-4)Gal(b1-4)Glc
Summary of the method: as §1

[5] = biological target: Fuc(a1-2)Gal(b1-3)GalNAc(b1-4)[Neu5Ac(a2-3)]Gal(b1-4)Glc
Summary of the method: as §1

Fuc(a1-2)Gal(b1-3)GlcNAc = biological target: Fuc(a1-2)Gal(b1-3)GlcNAc
Summary of the method: as §1

[6] = biological target: Fuc(a1-2)Gal(b1-3)GlcNAc(b1-2)Man(a1-3)[Fuc(a1-2)Gal(b1-3)GlcNAc(b1-2)Man(a1-6)]Man(b1-4)GlcNAc(b1-4)GlcNAc
Summary of the method: as §1

[7] = biological target: Fuc(a1-2)Gal(b1-3)GlcNAc(b1-2)Man(a1-3)[Fuc(a1-2)Gal(b1-3)GlcNAc(b1-2)Man(a1-6)]Man(b1-4)GlcNAc(b1-4)[Fuc(a1-6)]GlcNAc
Summary of the method: as §1

[8] = biological target: Fuc(a1-2)Gal(b1-3)GlcNAc(b1-3)Gal(b1-4)Glc
Summary of the method: as §1

[9] = biological target: Fuc(a1-2)Gal(b1-3)GlcNAc(b1-3)GalNAc
Summary of the method: as §1

[10] = biological target: Fuc(a1-2)Gal(b1-3)GlcNAc(b1-3)[Fuc(a1-2)Gal(b1-3)GlcNAc(b1-6)]GalNAc
Summary of the method: as §1

[11] = biological target: Fuc(a1-2)Gal(b1-3)GlcNAc(b1-3)[Gal(b1-4)GlcNAc(b1-6)]Gal(b1-4)Glc
Summary of the method: as §1

[12] = biological target: Fuc(a1-2)Gal(b1-3)GlcNAc(b1-3)[Neu5Ac(a2-6)Gal(b1-4)GlcNAc(b1-6)]Gal(b1-4)Glc
Summary of the method: as §1

[13] = biological target: Fuc(a1-2)Gal(b1-3)GlcNAc6S
Summary of the method: as §1

[14] = biological target: Fuc(a1-2)Gal(b1-3)[Fuc(a1-4)]GlcNAc
Summary of the method: as §1

[15] = biological target: Fuc(a1-2)Gal(b1-3)[Fuc(a1-4)]GlcNAc(b1-2)Man(a1-3)[Fuc(a1-2)Gal(b1-3)[Fuc(a1-4)]GlcNAc(b1-2)Man(a1-3)]Man(b1-4)GlcNAc(b1-4)GlcNAc
Summary of the method: as §1

[16] = biological target: Fuc(a1-2)Gal(b1-3)[Fuc(a1-4)]GlcNAc(b1-2)Man(a1-3)[Fuc(a1-2)Gal(b1-3)[Fuc(a1-4)]GlcNAc(b1-2)Man(a1-6)]Man(b1-4)GlcNAc(b1-4)[Fuc(a1-6)]GlcNAc(b1-4)[Fuc(a1-6)]GlcNAc
Summary of the method: as §1

[17] = biological target: Fuc(a1-2)Gal(b1-3)[Fuc(a1-4)]GlcNAc(b1-3)[Fuc(a1-3)[Gal(b1-4)]GlcNAc(b1-6)]Gal(b1-4)Glc
Summary of the method: as §1

[18] = biological target: Fuc(a1-2)Gal(b1-3)[Fuc(a1-4)]GlcNAc(b1-3)[Gal(b1-4)GlcNAc(b1-6)]Gal(b1-4)Glc
Summary of the method: as §1

[19] = biological target: Fuc(a1-2)Gal(b1-4)Fuc(a1-3)]GlcNAc(b1-2)Man(a1-3)[Fuc(a1-2)Gal(b1-4)[Fuc(a1-3)]GlcNAc(b1-2)Man(a1-6)]Man(b1-4)GlcNAc(b1-4)GlcNAc
Summary of the method: as §1

Fuc(a1-2)Gal(b1-4)Glc = biological target: Fuc(a1-2)Gal(b1-4)Glc
Summary of the method: as §1

Fuc(a1-2)Gal(b1-4)Glc6S = biological target: Fuc(a1-2)Gal(b1-4)Glc6S
Summary of the method: as §1

Fuc(a1-2)Gal(b1-4)GlcNAc = biological target: Fuc(a1-2)Gal(b1-4)GlcNAc
Summary of the method: as §1

[20] = biological target: Fuc(a1-2)Gal(b1-4)GlcNAc(b1-2)Man
Summary of the method: as §1

[21] = biological target: Fuc(a1-2)Gal(b1-4)GlcNAc(b1-2)Man(a1-3)[Fuc(a1-2)Gal(b1-4)GlcNAc(b1-2)Man(a1-6)]Man(b1-4)GlcNAc(b1-4)GlcNAc
Summary of the method: as §1

[22] = biological target: Fuc(a1-2)Gal(b1-4)GlcNAc(b1-2)Man(a1-3)[Fuc(a1-2)Gal(b1-4)GlcNAc(b1-2)Man(a1-6)]Man(b1-4)GlcNAc(b1-4)[Fuc(a1-6)]GlcNAc
Summary of the method: as §1

[23] = biological target: Fuc(a1-2)Gal(b1-4)GlcNAc(b1-2)[Fuc(a1-2)Gal(b1-4)GlcNAc(b1-4)]Man(a1-3)[Fuc(a1-2)Gal(b1-4)GlcNAc(b1-2)Man(a1-6)]Man(b1-4)GlcNAc(b1-4)GlcNAc
Summary of the method: as §1

[24] = biological target: Fuc(a1-2)Gal(b1-4)GlcNAc(b1-3)Gal(b1-4)GlcNAc
Summary of the method: as §1

B1: AAL (Agrocybe aegerita), Q6WY08 (protein)
chain: MQGVNIYNISAGTSVDLAAPVTTGDIVTFFSSALNLNAGAGNPNNTTLNLFAENGAYLLHIAHRLQENVIIFNSRQPDGPWLVEQRVSDVANQFAGIDGKAMVTVFDHGDKYQVVINEKTVIQYTKQISGLTLSLSYNATEETSIFSTVVEAVTYTGLALEHHHHHH
glycan array binding signal (z-score) (Fuc(a1-2)Gal): -0.139 | glycan array binding signal (z-score) (Fuc(a1-2)Gal(b1-3)GalNAc): -0.198 | glycan array binding signal (z-score) [1]: -0.013 | glycan array binding signal (z-score) [2]: -0.252 | glycan array binding signal (z-score) [3]: 0.092 | glycan array binding signal (z-score) [4]: -0.075 | glycan array binding signal (z-score) [5]: 0.857 | glycan array binding signal (z-score) (Fuc(a1-2)Gal(b1-3)GlcNAc): -0.083 | glycan array binding signal (z-score) [6]: 0.176 | glycan array binding signal (z-score) [7]: -0.225 | glycan array binding signal (z-score) [8]: -0.394 | glycan array binding signal (z-score) [9]: 0.099 | glycan array binding signal (z-score) [10]: 0.456 | glycan array binding signal (z-score) [11]: -0.05 | glycan array binding signal (z-score) [12]: 0.013 | glycan array binding signal (z-score) [13]: 0.045 | glycan array binding signal (z-score) [14]: -0.413 | glycan array binding signal (z-score) [15]: 0.03 | glycan array binding signal (z-score) [16]: 0.129 | glycan array binding signal (z-score) [17]: 0.734 | glycan array binding signal (z-score) [18]: 0.22 | glycan array binding signal (z-score) [19]: 0.548 | glycan array binding signal (z-score) (Fuc(a1-2)Gal(b1-4)Glc): -0.144 | glycan array binding signal (z-score) (Fuc(a1-2)Gal(b1-4)Glc6S): -0.133 | glycan array binding signal (z-score) (Fuc(a1-2)Gal(b1-4)GlcNAc): -0.308 | glycan array binding signal (z-score) [20]: -0.262 | glycan array binding signal (z-score) [21]: 0.43 | glycan array binding signal (z-score) [22]: -0.137 | glycan array binding signal (z-score) [23]: -0.02 | glycan array binding signal (z-score) [24]: -0.502
